Source: the supplement of paper PMC12217912
Some of the results follow. The full chains were built here from the parent and the listed change. Inactive controls read about 0.05.

B1: TEV protease; numbered along this chain (parent)
chain: MGESLFKGPRDYNPISSSICHLTNESDGHTTSLYGIGFGPFIITNKHLFRRNNGTLVVQSLHGVFKVKDTTTLQQHLVDGRDMIIIRMPKDFPPFPQKLKFREPQREERICLVTTNFQTKSMSSMVSDTSCTFPSGDGIFWKHWIQTKDGQCGSPLVSTRDGFIVGIHSASNFTNTNNYFTSVPKNFMELLTNQEAQQWVSGWRLNADSVLWGGHKVFMVKPEEPFQPVKEATQL

Variants of: B1
Test: raw area under fraction-flipped curve 0-4 h after induction (AUC4h, not background-subtracted), DNA-recorder readout of cleavage of the substrate (dimensionless); higher = more cleavage of the substrate by the protease variant
Conditions: temperature: 34 °C; time window: 0-4 h after rhamnose induction
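Also: Bxb1 expression induced with 0.2% (w/v) L-rhamnose at OD600 near 0.5, cultures sampled hourly, flipped fraction per protease–substrate barcode pair counted by paired-end Illumina sequencing.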

Variant | area with substrate ENAYFQS | area with substrate ENDYFQS | area with substrate ENEYFQS | area with substrate ENFYFQS | area with substrate ENGYFQS | area with substrate ENIYFQS | area with substrate ENPYFQS | area with substrate ENRYFQS | area with substrate ENSYFQS | area with substrate ENTYFQS | area with substrate ENWYFQS | area with substrate ENYYFQS | area with substrate ENKYFQS | area with substrate ENNYFQS | area with substrate ENQYFQS | area with substrate ENVYFQS | area with substrate ENCYFQS | area with substrate ENHYFQS | area with substrate ENMYFQS
W144K | 0.0685 | 0.052 | 0.0537 | 0.0651 | 0.0718 | 0.0758 | 0.0649 | 0.0895 | 0.0642 | 0.0638 | 0.0681 | 0.0688 | – | – | – | – | – | – | –
W144M | 0.0634 | 0.0595 | 0.0717 | 0.0695 | – | 0.0945 | – | 0.0503 | 0.0531 | – | 0.0656 | – | 0.074 | 0.0831 | 0.0579 | 0.0559 | – | – | –
W144N | 0.06 | – | 0.0592 | – | 0.0637 | 0.0763 | – | 0.0521 | 0.0653 | 0.0733 | – | – | – | – | 0.0585 | – | 0.0882 | 0.0678 | 0.078
W144P | 0.0204 | 0.0643 | 0.0567 | 0.0539 | – | – | 0.0677 | 0.0613 | 0.0641 | 0.0583 | 0.0464 | 0.0642 | 0.063 | 0.0692 | 0.0587 | – | 0.0549 | – | –
W144R | 0.0526 | 0.0665 | 0.067 | 0.0696 | 0.0677 | – | – | 0.06 | 0.064 | – | – | – | 0.038 | – | 0.0631 | 0.075 | 0.0571 | 0.0751 | –
W144S | 0.0593 | 0.0568 | – | 0.0798 | 0.067 | – | 0.0572 | – | 0.0647 | 0.0667 | – | – | – | – | 0.0611 | 0.0711 | 0.0663 | 0.0713 | –
W144V | 0.0604 | 0.0606 | 0.0686 | 0.0692 | 0.0642 | 0.0852 | – | – | 0.0639 | 0.0765 | 0.0634 | – | 0.0588 | 0.056 | 0.0633 | 0.0665 | 0.0676 | 0.0667 | –
W144Y | 0.0604 | 0.0684 | 0.0564 | 0.0503 | 0.0606 | 0.118 | 0.0732 | 0.0541 | 0.08 | 0.0753 | – | 0.0855 | – | 0.053 | 0.0594 | 0.0773 | 0.0651 | 0.0719 | 0.0711
K148A | 0.0533 | 0.0536 | 0.0642 | 0.0545 | 0.0621 | 0.112 | 0.0608 | 0.0581 | 0.0512 | 0.0772 | 0.0871 | 0.0587 | – | 0.0605 | 0.0607 | 0.0773 | 0.0647 | 0.0639 | 0.0664
G150E | 0.0566 | 0.0662 | 0.0574 | 0.0588 | 0.053 | 0.0615 | – | 0.0637 | 0.0609 | 0.0589 | – | – | 0.0602 | 0.0558 | 0.0584 | 0.047 | 0.0638 | 0.0611 | 0.0618
G150W | 0.0534 | 0.0649 | 0.0734 | 0.0558 | 0.0605 | 0.0559 | 0.0572 | 0.0587 | 0.0546 | 0.0526 | – | 0.0612 | 0.0767 | 0.0567 | 0.0645 | 0.0538 | 0.0661 | 0.0547 | 0.0946
C152A | 0.0504 | 0.066 | 0.0558 | – | 0.0462 | – | 0.0619 | 0.0724 | 0.0739 | 0.059 | – | 0.0613 | – | – | 0.0617 | 0.0539 | 0.0633 | – | 0.0817
